PubChem BioAssay (NCI)
More than one record can exist for a structure, and the calls need not agree.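 Activity criterion: percent growth below 10, measured after cells in 96-well plates were exposed to a single compound concentration for 48 hours.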 Certain results were filed several times, with different values. This is not the full list of results. There may be further records. The screen tested this drug many times, at the concentration stated with the values; each value is one run. Marks such as (2×) give the number of equal values in this list.

Legend:
SK-MEL-2 melanoma = experiment: NCI-60 one-dose screen, 48 h (100 = growth as untreated, 0 = no growth, -100 = all killed); details: 25 µM
SN12C renal = experiment: as above; details: 0.25 µM

`COc1cccc2c1C(=O)c1c(O)c3c(c(O)c1C2=O)C[C@@](O)(C(=O)CO)C[C@@H]3OC1CC(N)C(O)C(C)O1` (stereo not given in full) was tested, and the growth (SK-MEL-2 melanoma; runs of 1992) was “active: -93.7 (2×), -92.4, -96.5, -94.2, -96.1, -92.5 (2×), -90.8 (2×), -92.6 (2×), -91.2, -93.8 (3×), -94.1 (3×), -98 (4×), -80.4, -97.2 (2×), -95.3, -94.5, -78, -95.5, -92.1, -91.5, -93.9, -88.3 (2×), -91.6, -82.7, -78.4, -90.4, -90.7, -76.3, -89.4, -91.4, -90.1, -97 (2×), -99.9, -95.8, -99.4, -82.8, -100 (10×), -95.2, -89.1, -71.8, -78.6, -89.6, -95.1, -96.7 (2×), -94.6, -84.8, -97.8 (2×), -97.6, -91, -79, -95.6, -96 (2×), -97.7, -96.9, -92.7, -66.3, -96.4 (2×), -96.3, -98.7 (2×), -99.8, -86.8, -95, -89.3, -88.2, -88.5, -88.4, -85.4, -98.8, -97.9, -98.3 (2×), -87.2, -99.7, -93.2, -97.3, -98.1, -89.5, -88.8, -99.2, -98.9, -89, -94.3, -83.1, -93.4, -94.8, -63.1, -72.1, -90.6%”, the growth (SK-MEL-2 melanoma; runs of 1993) was “active: -91.5, -72.7, -75.7, -95.1, -78.7, -91.4, -94.8, -95.4 (2×), -61.6, -67.1, -100, -86.2, -75.1, -73.9, -87.5, -69.1, -87.6, -52.3, -82.2, -97.4, -74.4, -86.7, -50.3, -81.2, -53.8, -46.1, -60.4, -83.7, -93.9, -99.1%” and the growth (SK-MEL-2 melanoma; runs of 1994) was “active: -46.9, -76.4, -50.4, -91.1 (2×), -97.4, -84.4, -89.1, -99.3, -62.5, -92.9, -47.5, -90.9, -45.7, -76.1, -46.4, -86.5, -89.5, -89.7, -83.4, -53.8, -71.8, -82.7, -61% and inactive: 110%”. The growth (SK-MEL-2 melanoma; runs of 1995) was “active: -75.5, -91, -56.4, -61.3, -70.5, -90.8, -89.9, -98.2 (2×), -75, -95.1, -99.7, -80, -85.5, -91.4, -96.7, -84.5, -99, -97.3, -68.4, -56, -58.5, -86.3, -29.4, -92.8, -34.2, -88.3, -55.2, -61.2, -100, -86.6, -84.7, -97.6, -99.8, -90.7, -93.7%”, the growth (SK-MEL-2 melanoma; runs of 1996) was “active: -34.7, -55.9, -98.3 (2×), -87.3, -63.9, -99 (2×), -96 (2×), -91, -99.1, -73.4, -54.7, -84.2, -86.1, -77, -57.2, -86.5, -66.6, -90.1, -47.6, -63.6, -98.9, -79.4, -68.3, -66.7 (2×), -54.1, -64.4, -47.9, -75.1, -75.8, -82.2, -71.5, -56.7, -69.5, -86.7, -94.9, -87.4, -92.6 (2×), -83.9, -52.1, -64.2, -38.3, -97, -54.5, -92.5, -95.7, -26.8, -76.2, -67.2, -96.9, -41.4, -17.5, -84.6% and inactive: 99.7%, 114%” and the growth (SK-MEL-2 melanoma; runs of 1997) was “active: -86.3, -28.7, -58.3, -99.1, -92.4 (2×), -90.3, -83.9, -88.7, -93.3, -91.1, -94.8, -55.9, -82.2, -88, -89.3, -97.9, -79.8, -62.5, -99.2, -78.9, -34.4, -46.8, -90.7, -87.5, -46.5, -96.3, -98, -73, -76, -36.7, -76.4, -70, -54.9, -38.4, -81, -39.1, -67.4, -75.6, -73.8, -31.4, -44.6, -63.7, -82.5%”. The growth (SK-MEL-2 melanoma; runs of 1998) was “active: -71.4, -77.9, -76.7, -67.9, -96.5, -73.3 (2×), -62.8, -67.4, -95.3, -76.5, -34.1, -89, -51.4, -78.4, -69.6, -72.1, -42, -76.4, -85.8, 2.81, -64.8, -50.4, -58.1, -29%”, the growth (SK-MEL-2 melanoma; runs of 1999) was “active: -90.5, -59.1, -59.4, -84.2, -92.1, -82, -95.6, -70.2, -83, -27.9, -80.8, -69.3, -45.2, -80.2, -89.2, -95, -53.3, -93.8%” and the growth (SK-MEL-2 melanoma; runs of 2000) was “active: -100% (2×), -78.6%, -92.2%”. For the same compound, the growth (SN12C renal; runs of 2006) was “inactive: 31%, 21.4%”, the growth (SN12C renal; runs of 2007) was “inactive: 31.2 (2×), 10.3, 26.5, 26.1, 29.8, 28.3 (2×), 33.4, 34.4, 25.3, 35.4, 20.1, 36.2, 12.9, 30.4, 23.8, 21.5, 26.6, 29.9, 17.4, 27.8, 25.8 (2×), 21.2, 39.3, 30.2, 29.2, 26.2, 43.8, 27, 41.9, 31.3, 21.3, 25.2, 24.2, 35.1%” and the growth (SN12C renal; runs of 2008) was “inactive: 30.9, 26.6 (2×), 28.3, 22.7, 21.2, 26.5 (2×), 34.6, 27.5, 24.4, 30.8, 28.9, 28.5, 18.9, 21, 22.6 (2×), 19.4, 24.8, 16, 29.9, 93.8, 26.8, 22.1 (2×), 14.1, 20.7, 13.8, 20.8 (2×), 15.1, 13.5, 23, 18.1, 27.4, 26.3, 25.2, 30.7, 22.4, 39.6, 32.3, 24.3, 23.8, 26.7, 33.3, 26.9, 23.4% and active: 9.8%”. For the same compound, the growth (SN12C renal; runs of 2009) was “inactive: 13, 18.2, 31.1, 26.5 (2×), 24.3, 23.3, 27.8, 35.3, 30.4, 25.5 (3×), 27.5, 30.6, 27.1, 20.9, 22.6 (2×), 21.3 (2×), 26, 23, 21.5, 29.2, 34.1, 25.1 (2×), 24.9, 18.1, 27.2, 25.8, 28.3, 34, 29.6, 18.7, 20.7, 30.2, 25.9 (2×), 12.4, 23.1, 14.7, 12.5, 13.7, 16.4, 10.2, 26.6, 15.4, 12.3, 31.4, 12.8, 36.4, 38.8, 26.3, 20.3, 18.9, 33.3, 21.7 (2×), 34.2, 24.1, 27, 22.4, 20.5% and active: 2.29%, -21.4%”, the growth (SN12C renal; runs of 2010) was “inactive: 21, 27.4 (2×), 29.9, 20.4, 20.5 (2×), 37.3, 28.3, 20.9, 30.3 (3×), 31.5, 24.8, 32.4, 23.4, 32.1, 23.9 (2×), 22.2, 24.9, 26.4 (2×), 25.3, 15.8, 31.9, 27, 26 (2×), 38, 22.5, 25.5, 26.1, 22.7, 19.2, 27.9, 33.2, 29.1, 24.2 (2×), 18.5, 27.7, 28.2, 31.4, 23.8, 27.3%” and the growth (SN12C renal; runs of 2011) was “inactive: 22.4, 24.1, 29.6 (2×), 36.5, 34.8, 24.8 (2×), 16.5, 27.5, 23.9 (2×), 30.3, 26.6, 27, 24.2, 27.3, 29.1, 25.9 (2×), 20.3, 25.1 (3×), 26.5 (2×), 38.5, 33.6, 35.3, 31.2, 30.9 (2×), 20.8, 16.3, 19.9, 19.7, 19.5, 18.7, 17.9, 19.2, 23, 21.7, 22.2, 23.1, 23.7, 25.3, 21.3, 26.1, 28.3, 26.4, 18.5, 21.8, 19, 22.6, 28.8%”.
